# Data: PubChem BioAssay AID1345082 (National Center for Advancing Translational Sciences (NCATS), 2018)
# Values joined by “and” are separate entries in the source; they are usually repeats but may differ in a detail not shown here. Equal entries are not always repeated. Screen size: about 94,000 compounds; about 4,000 (4.3%) were called active. The inconclusive results got no clear call from the source; some entries with a clear call stand among them for comparison. Calls follow the shape of the dose curve; as a rule, active = well fitted inhibition curve with a large enough effect; inconclusive = small, poorly fitted or top-dose-only effect; inactive = no such curve, though single readings can be large or run the other way. Potencies of inconclusive entries are doubtful fits and often do not repeat.
# Experiment: Cytotoxic Profiling in NIH 3T3 Cell Line of Diverse Libraries Using Quantitative High-Throughput Screening; also: nearly all actives have a fitted effect of over 55% in size
# Conditions: NIH 3T3 viability, CellTiter-Glo ATP luminescence, 48-72 h; activity change, negative = cytotoxicity: at 96.7 µM (top of the series); series mostly up to 96.7 µM
# Outline: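 Viability of NIH 3T3 cells after 48 or 72 hr compound treatment at 37 °C was assessed by CellTiter-Glo, with luminescence imaged following a 10 min room-temperature step.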
# % is scaled to controls: 0 for no effect and ±100 for the full control effect; potency is read from the fitted curve at half-maximal effect; tags tell the direction and shape of the fitted curve.
Structure (SMILES),Potency,"activity change, negative = cytotoxicity",outcome
C=CCN1CCN(C(=O)[C@@H]2Cc3c[nH]c4cccc(c34)[C@H](CC(C)C)N2)CC1,"inconclusive: 126 µM [inhibitor, single point]",,
CCNC(=O)c1n[nH]c2c1CN(C(=O)c1cccc(Br)c1)CC2,,inactive: -23.2%,
Cc1ccc(C(=O)N2CCCC3(CN[S+](=O)([O-])c4cnccc4N3)C2)cc1 (stereo not drawn),,,inactive
COC(=O)CNC(=O)c1cc(-c2ccc([S+](C)(=O)[O-])cc2)nc2c1cnn2C,,inactive: -5.43%,
Cn1ncc(CN2CCCC23CCN(c2ccc(C(F)(F)F)cn2)CC3)c1C1CC1,"inconclusive: 70.8 µM [inhibitor, partial curve, poor fit]",,
O=C(O)c1cccc(-c2n[nH]c3c2CC(=O)N(CC2CCOCC2)C3)c1,"inconclusive: 112 µM [inhibitor, single point]",,
O=C(Cc1ccc(F)cc1)N1CCCC(c2noc(COc3ccccc3F)n2)C1 (stereo not drawn),"inconclusive: 50.1 µM [inhibitor, partial curve, poor fit]",,
CN(CC1CCOC1)C(=O)Nc1ccccc1 (stereo not drawn),,,inactive
Cc1ccc(CN2CCc3nc(C(=O)NCc4ccccc4)oc3CC2)o1,"inconclusive: 112 µM [inhibitor, partial curve, poor fit]",,
CN(CCc1ccccc1)CC[C@@H]1CC[C@H](O)[C@@H](C(=O)N(C)Cc2ccccc2)O1,"inconclusive: 126 µM [inhibitor, single point]",,
O=C(c1ccc(F)cc1)N1CCC(Cc2nc(-c3ccccc3)no2)CC1,"inconclusive: 7.94 µM [inhibitor, full curve, poor fit]",,
Cc1noc2c(NCCc3ccccn3)cc(-c3ccccn3)nc12,"inconclusive: 25.1 µM [inhibitor, full curve]",,
COc1cccc(CC(=O)Nc2ccc3c(c2)CN(Cc2cccc(OC)c2OC)C(=O)CO3)c1,,inactive: -11.6%,
Cc1nc(CN2CCOC3(CCN([S+](=O)([O-])c4ccc(C#N)cc4)CC3)C2=O)cs1,"inconclusive: 50.1 µM [inhibitor, partial curve, poor fit]",,
Cc1nnc2ccc(N3CCN(C(=O)Cc4ccccn4)CC3)nn12,,inactive: -26.9%,
Cc1cccc(OCCc2noc(C3CCCN3C(=O)c3n[nH]c(=O)c4ccccc34)n2)c1 (stereo not drawn),"inconclusive: 50.1 µM [inhibitor, partial curve, poor fit]",,
Cc1nc(CC(=O)N[C@@H]2COCC[C@H]2Oc2ccc(C#N)cc2)c(C)s1,"inconclusive: 89.1 µM [inhibitor, single point]",,
O=C(c1ccccc1)N1CCCC(C(=O)N2CCCC(c3nc4ncccc4[nH]3)C2)C1 (stereo not drawn),,inactive: -15.4%,
COc1ccc(CN2CCOc3ccc(C(=O)NCc4ccccc4F)cc3C2)c(OC)c1,"inconclusive: 44.7 µM [inhibitor, partial curve, poor fit]",,
Cc1noc(C)c1C(=O)N1CCCCC1c1nc(CCOCC2CCCC2)no1 (stereo not drawn),"inconclusive: 79.4 µM [inhibitor, partial curve, poor fit]",,
N#Cc1ccc(S(=O)(=O)N2CC(n3cc(C(=O)NCc4ccccc4)nn3)C2)cc1,"inconclusive: 50.1 µM [inhibitor, partial curve, poor fit]",,

Structure (SMILES),Potency,"activity change, negative = cytotoxicity",outcome
CNc1ncc(CN(C)C(=O)CCc2cc3n(n2)CCCNC3)cn1,,inactive: 0.01%,
CCN1C(=O)COC[C@@H]1[C@H](O)c1ccc(NC(=O)c2ccc3c(c2)OCO3)cc1,,inactive: -3.02% [at 138 µM],
COc1ccc(CCC(=O)N2[C@@H]3CC[C@H]2CC(NC(=O)c2ccc(F)cc2)C3)cc1 (stereo partly drawn),"inconclusive: 70.8 µM [inhibitor, single point]",,
O=C(NC[C@H]1Cn2cc(-c3ccccc3)nc2CO1)c1ccccc1,,inactive: -17.5% [at 138 µM],
Cc1ccccc1C(=O)N1CCC2(C1)C(=O)N(CCc1ccccc1)c1ccccc12 (stereo not drawn),"inconclusive: 44.7 µM [inhibitor, partial curve, poor fit] and inconclusive: 50.1 µM [inhibitor, partial curve, poor fit]",,
c1ccc(-c2nc3ccncc3[nH]2)nc1,"inconclusive: 63.1 µM [inhibitor, partial curve, poor fit]",,
CCOC(=O)C1(Cc2ccccc2F)CCCN(C(=O)c2coc3c2C(=O)CCC3)C1 (stereo not drawn),,inactive: -15.9%,
Cc1ccc(Nc2ccnc(N3CCC(C(=O)N4CCCC4)CC3)n2)cc1,"inconclusive: 39.8 µM [inhibitor, partial curve, poor fit]",,
O=C(Nc1ccc(F)cc1)C1CCCN1c1nc2ncccc2o1 (stereo not drawn),,inactive: -10.6%,
O=C(Nc1ccccc1)O[C@H]1COCCN(c2nc3ccccc3o2)C1,"inconclusive: 63.1 µM [inhibitor, partial curve, poor fit]",,
Brc1ccc(CN2CCC(c3nc4ncccc4[nH]3)CC2)cc1,"inconclusive: 44.7 µM [inhibitor, partial curve, poor fit]",,
Cc1nn(-c2ccc(C(F)(F)F)cc2)c(C)c1[C@@H]1C=C[C@@H](NC(=O)Nc2ccccc2)C1,active: 31.6 µM,,
O=C(C1CCCN([S+](=O)([O-])c2cccc(C(F)(F)F)c2)C1)N1CCC(N2CCOCC2=O)CC1 (stereo not drawn),"inconclusive: 44.7 µM [inhibitor, partial curve, poor fit]",,
COc1ccc(-c2c(C(=O)NCCc3ccccc3F)nc3sccn23)cc1,"inconclusive: 44.7 µM [inhibitor, partial curve, poor fit]",,
CN(C)c1ccc(C(=O)N2CCN3C(=O)N(Cc4ccccc4)C(=O)[C@H]3C2)cc1,"inconclusive: 89.1 µM [inhibitor, partial curve, poor fit]",,
CCCN1CCC2(CCN(C(C)=O)CC2)Oc2ccccc21,,inactive: -5.19% [at 138 µM],
O=C(NCCc1ccccc1)c1cn2cc(-c3ccccc3)sc2n1,"inconclusive: 70.8 µM [inhibitor, single point]",,
COc1cc(NC(=O)CCC2CCCN(Cc3nc(C(C)C)cs3)C2)cc(OC)c1 (stereo not drawn),"inconclusive: 39.8 µM [inhibitor, partial curve, poor fit]",,
COc1cccc(S(=O)(=O)N2CCC(n3c(C)cnc3C3CC3)CC2)c1,"inconclusive: 50.1 µM [inhibitor, partial curve, poor fit]",,
CC(=O)Oc1c(-c2ccc(NC(=O)CC(C)C)cc2)c(-c2ccc(F)cc2)nn1-c1ccc(F)cc1,"inconclusive: 50.1 µM [inhibitor, partial curve, poor fit]",,
CC(O)CNc1ccc(-c2nc(CCCc3ccccc3)no2)cn1 (stereo not drawn),"inconclusive: 50.1 µM [inhibitor, partial curve, poor fit]",,

Structure (SMILES),Potency,"activity change, negative = cytotoxicity",outcome
CN(C)Cc1cc(CC2(NCc3ccc4c(c3)OCO4)COC2)no1,,inactive: -16% [at 138 µM],
COc1ccc(NC(=O)Cn2c(-c3ccccc3)nc(C)c(CCO)c2=O)cc1OC,"inconclusive: 70.8 µM [inhibitor, single point]",,
CC1CCC2(CC1)OCC(C(=O)NCc1ccc3c(c1)OCO3)N2C(=O)c1ccccc1F (stereo not drawn),active: 20 µM,,
Cc1ccc(-c2ccccc2CN2CCC(C(=O)NCC(F)F)CC2)cc1Cl,"inconclusive: 44.7 µM [inhibitor, partial curve, poor fit]",,
O=C(c1ccccc1)N1CCOc2ccc(CN3CCc4ccccc4C3)cc2C1,"inconclusive: 35.5 µM [inhibitor, partial curve]",,
COc1ccc(NC(=O)Cn2c(N3CCN(c4ccccc4)CC3)nc(C)cc2=O)cc1Cl,"inconclusive: 39.8 µM [inhibitor, partial curve, poor fit]",,
CC(=O)c1cc(CN2CCCC(C(=O)c3cccc(OC(C)C)c3)C2)cs1 (stereo not drawn),"inconclusive: 39.8 µM [inhibitor, partial curve]",,
COc1ccc(OC)c(-c2nc3cc4c(cc3cc2CN2CCOCC2)OCO4)c1,,inactive: -16.3%,
COc1cccc(CNC(=O)Cn2nc3n(c2=O)CCCC3)c1,,,inactive
CN1Cc2ccc(NCc3ccccc3)nc2C(C)(C(=O)NCc2ccccc2)C1 (stereo not drawn),"inconclusive: 56.2 µM [inhibitor, partial curve, poor fit]",,
COc1ccc(-c2ccc(C(=O)N3CCN(C(=O)N4CCOCC4)CC3)cc2)nn1,,inactive: -0.125%,
Cc1ccc(-c2cc3c(ccn3C)c(C(=O)NCc3cccnc3)n2)cn1,active: 35.5 µM,,
CN(Cc1ccc(-c2ccccc2)cc1)C(=O)Cc1cccc(Cl)c1,"inconclusive: 50.1 µM [inhibitor, partial curve]",,
Cc1cc(C)n(CC(=O)N(C)C2CCc3nn(CC4CC4)c(=O)n3CC2)n1 (stereo not drawn),,inactive: -13.7%,
CN(C)c1cccc(-c2cnc3[nH]cc(CC(=O)NCc4cccnc4)c3c2)c1,"inconclusive: 79.4 µM [inhibitor, partial curve]",,
COc1ccc(-c2cc(C(=O)NC3CC3)c3c(C4CCNC4)nn(C)c3n2)cc1 (stereo not drawn),"inconclusive: 50.1 µM [inhibitor, partial curve, poor fit]",,
COc1ccc(Cl)cc1C(=O)N1CCC[C@H]1c1nc(-c2ccc(C)cc2)no1,"inconclusive: 50.1 µM [inhibitor, partial curve, poor fit]",,
COc1ccc(C2(C(=O)N3CCC4(CCC4OC)CC3)CC2)cc1 (stereo not drawn),,inactive: -18.3%,
O=C(Nc1ccccc1)C1=NO[C@@H]2CN(Cc3ccc(O)c(Cl)c3)C[C@H]12,"inconclusive: 89.1 µM [inhibitor, partial curve, poor fit]",,
CCc1nc(-c2c3n(c(=O)n(CC(=O)NCCc4ccccc4)c2=O)CCCC3)no1,,,inactive
O=C1[C@@H]2C[C@@H](O)CN2C2(CN(Cc3ccc(OC(F)(F)F)cc3)C2)C(=O)N1Cc1ccccc1Cl,"inconclusive: 89.1 µM [inhibitor, single point]",,
